# Some of the results follow. The full chains were built here from the parent and the listed change. Inactive controls read about 0.05.
# B1: TEV protease; numbered along this chain (parent)
# chain: MGESLFKGPRDYNPISSSICHLTNESDGHTTSLYGIGFGPFIITNKHLFRRNNGTLVVQSLHGVFKVKDTTTLQQHLVDGRDMIIIRMPKDFPPFPQKLKFREPQREERICLVTTNFQTKSMSSMVSDTSCTFPSGDGIFWKHWIQTKDGQCGSPLVSTRDGFIVGIHSASNFTNTNNYFTSVPKNFMELLTNQEAQQWVSGWRLNADSVLWGGHKVFMVKPEEPFQPVKEATQL
# Variants of: B1
# Assay: raw area under fraction-flipped curve 0-4 h after induction (AUC4h, not background-subtracted), DNA-recorder readout of cleavage of the substrate (dimensionless); higher = more cleavage of the substrate by the protease variant
# Conditions: temperature: 34 °C; time window: 0-4 h after rhamnose induction
# Method: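 In vivo DNA recorder in E. coli TOP10(DE3) ΔrhaA at 34 °C. Each TEVp single-site mutant (parent TEVp 0) is paired with a single-site variant of the 7-mer TEVs (canonical ENLYFQ|S). The substrate sits between flexible linkers in a Bxb1-sfGFP-TEVs-SsrA fusion, so cleavage stabilises Bxb1 and speeds flipping of a recombination array, read by NGS. The value is the raw area under the fraction-flipped curve over 0-4 h after rhamnose induction (AUC4h), with ≥20 reads per time point. It is not background-subtracted; inactive controls average about 0.047.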
# 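Note: Bxb1 expression induced with 0.2% (w/v) L-rhamnose at OD600 near 0.5, cultures sampled hourly, flipped fraction per protease–substrate barcode pair counted by paired-end Illumina sequencing.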
Variant,area with substrate ENLYAQS,area with substrate ENLYGQS,area with substrate ENLYIQS,area with substrate ENLYMQS,area with substrate ENLYNQS,area with substrate ENLYPQS,area with substrate ENLYQQS,area with substrate ENLYSQS,area with substrate ENLYTQS,area with substrate ENLYDQS,area with substrate ENLYEQS,area with substrate ENLYHQS,area with substrate ENLYKQS,area with substrate ENLYRQS,area with substrate ENLYVQS,area with substrate ENLYWQS,area with substrate ENLYYQS,area with substrate ENLYLQS,area with substrate ENLYCQS
MGESLFKGPRDYNPISSSICHLTNESDGHTTSLYGIGFGPFIITNKHLFRRNNGTLVVQSLHGVFKVKDTTTLQQHLVDGRDMIIIRMPKDFPPFPQKLKFREPQREERICLVTTNFQTKSMSSMVSDTSCTFPSGDGIFWKHWIQTKDGQCGSPLVSTRDGFIVGIHSASNFTNTNNYFTSVPKNFMELLTNQEAQQWVSGWRLNADSVLWGGHKVFMVWPEEPFQPVKEATQL [K221W],0.046,0.0582,0.0722,0.049,0.0617,0.0725,0.0329,0.0723,0.0494,,,,,,,,,,
MGESLFKGPRDYNPISSSICHLTNESDGHTTSLYGIGFGPFIITNKHLFRRNNGTLVVQSLHGVFKVKDTTTLQQHLVDGRDMIIIRMPKDFPPFPQKLKFREPQREERICLVTTNFQTKSMSSMVSDTSCTFPSGDGIFWKHWIQTKDGQCGSPLVSTRDGFIVGIHSASNFTNTNNYFTSVPKNFMELLTNQEAQQWVSGWRLNADSVLWGGHKVFMVKPSEPFQPVKEATQL [E223S],0.0873,0.0622,,0.0848,0.0422,0.0707,,,,0.0747,0.0628,0.0527,0.0834,0.0613,0.112,0.0678,0.0682,,
MGESLFKGPRDYNPISSSICHLTNESDGHTTSLYGIGFGPFIITNKHLFRRNNGTLVVQSLHGVFKVKDTTTLQQHLVDGRDMIIIRMPKDFPPFPQKLKFREPQREERICLVTTNFQTKSMSSMVSDTSCTFPSGDGIFWKHWIQTKDGQCGSPLVSTRDGFIVGIHSASNFTNTNNYFTSVPKNFMELLTNQEAQQWVSGWRLNADSVLWGGHKVFMVKPVEPFQPVKEATQL [E223V],0.0687,0.0578,0.147,0.0477,0.0857,,,0.0737,,0.062,,,,0.0604,,,,0.0637,
MGESLFKGPRDYNPISSSICHLTNESDGHTTSLYGIGFGPFIITNKHLFRRNNGTLVVQSLHGVFKVKDTTTLQQHLVDGRDMIIIRMPKDFPPFPQKLKFREPQREERICLVTTNFQTKSMSSMVSDTSCTFPSGDGIFWKHWIQTKDGQCGSPLVSTRDGFIVGIHSASNFTNTNNYFTSVPKNFMELLTNQEAQQWVSGWRLNADSVLWGGHKVFMVKPEEEFQPVKEATQL [P225E],0.0717,0.0699,0.103,0.0861,,0.0687,,0.053,0.0852,0.055,0.0782,0.0656,,,,0.0921,0.0617,,
MGESLFKGPRDYNPISSSICHLTNESDGHTTSLYGIGFGPFIITNKHLFRRNNGTLVVQSLHGVFKVKDTTTLQQHLVDGRDMIIIRMPKDFPPFPQKLKFREPQREERICLVTTNFQTKSMSSMVSDTSCTFPSGDGIFWKHWIQTKDGQCGSPLVSTRDGFIVGIHSASNFTNTNNYFTSVPKNFMELLTNQEAQQWVSGWRLNADSVLWGGHKVFMVKPEEHFQPVKEATQL [P225H],0.0697,0.0684,,0.0754,0.0714,,,0.0726,0.0734,,0.0598,,,0.0605,0.102,0.0702,,,
MGESLFKGPRDYNPISSSICHLTNESDGHTTSLYGIGFGPFIITNKHLFRRNNGTLVVQSLHGVFKVKDTTTLQQHLVDGRDMIIIRMPKDFPPFPQKLKFREPQREERICLVTTNFQTKSMSSMVSDTSCTFPSGDGIFWKHWIQTKDGQCGSPLVSTRDGFIVGIHSASNFTNTNNYFTSVPKNFMELLTNQEAQQWVSGWRLNADSVLWGGHKVFMVKPEENFQPVKEATQL [P225N],0.0758,0.0611,,0.0875,0.0832,0.0765,0.0619,,,,0.0655,0.0742,0.0656,,0.106,0.0816,0.0552,0.0687,0.0894
MGESLFKGPRDYNPISSSICHLTNESDGHTTSLYGIGFGPFIITNKHLFRRNNGTLVVQSLHGVFKVKDTTTLQQHLVDGRDMIIIRMPKDFPPFPQKLKFREPQREERICLVTTNFQTKSMSSMVSDTSCTFPSGDGIFWKHWIQTKDGQCGSPLVSTRDGFIVGIHSASNFTNTNNYFTSVPKNFMELLTNQEAQQWVSGWRLNADSVLWGGHKVFMVKPEEPFCPVKEATQL [Q227C],0.0553,0.0659,0.126,0.0907,0.0741,,,0.0654,0.0697,,0.0596,0.0528,0.0167,0.0569,,0.0923,0.0749,,0.116
MGESLFKGPRDYNPISSSICHLTNESDGHTTSLYGIGFGPFIITNKHLFRRNNGTLVVQSLHGVFKVKDTTTLQQHLVDGRDMIIIRMPKDFPPFPQKLKFREPQREERICLVTTNFQTKSMSSMVSDTSCTFPSGDGIFWKHWIQTKDGQCGSPLVSTRDGFIVGIHSASNFTNTNNYFTSVPKNFMELLTNQEAQQWVSGWRLNADSVLWGGHKVFMVKPEEPFQKVKEATQL [P228K],0.0808,0.0519,0.126,,0.0738,0.0657,0.0628,,,0.0755,0.098,,,0.0576,,0.0535,,,
MGESLFKGPRDYNPISSSICHLTNESDGHTTSLYGIGFGPFIITNKHLFRRNNGTLVVQSLHGVFKVKDTTTLQQHLVDGRDMIIIRMPKDFPPFPQKLKFREPQREERICLVTTNFQTKSMSSMVSDTSCTFPSGDGIFWKHWIQTKDGQCGSPLVSTRDGFIVGIHSASNFTNTNNYFTSVPKNFMELLTNQEAQQWVSGWRLNADSVLWGGHKVFMVKPEEPFQLVKEATQL [P228L],0.078,0.04,,,,,0.0604,,0.112,,0.0701,0.0556,,,,,,0.057,0.108
MGESLFKGPRDYNPISSSICHLTNESDGHTTSLYGIGFGPFIITNKHLFRRNNGTLVVQSLHGVFKVKDTTTLQQHLVDGRDMIIIRMPKDFPPFPQKLKFREPQREERICLVTTNFQTKSMSSMVSDTSCTFPSGDGIFWKHWIQTKDGQCGSPLVSTRDGFIVGIHSASNFTNTNNYFTSVPKNFMELLTNQEAQQWVSGWRLNADSVLWGGHKVFMVKPEEPFQPAKEATQL [V229A],0.0774,0.0736,0.123,0.0866,0.0636,0.073,0.0501,0.0772,,0.0553,0.0545,,0.0262,,0.129,0.072,0.0856,,
MGESLFKGPRDYNPISSSICHLTNESDGHTTSLYGIGFGPFIITNKHLFRRNNGTLVVQSLHGVFKVKDTTTLQQHLVDGRDMIIIRMPKDFPPFPQKLKFREPQREERICLVTTNFQTKSMSSMVSDTSCTFPSGDGIFWKHWIQTKDGQCGSPLVSTRDGFIVGIHSASNFTNTNNYFTSVPKNFMELLTNQEAQQWVSGWRLNADSVLWGGHKVFMVKPEEPFQPVQEATQL [K230Q],0.0782,0.0793,0.13,0.0789,0.076,0.0708,0.0556,0.117,0.0682,0.0611,,0.063,0.0589,0.0591,0.0966,0.0883,0.0455,,0.0817
MGESLFKGPRDYNPISSSICHLTNESDGHTTSLYGIGFGPFIITNKHLFRRNNGTLVVQSLHGVFKVKDTTTLQQHLVDGRDMIIIRMPKDFPPFPQKLKFREPQREERICLVTTNFQTKSMSSMVSDTSCTFPSGDGIFWKHWIQTKDGQCGSPLVSTRDGFIVGIHSASNFTNTNNYFTSVPKNFMELLTNQEAQQWVSGWRLNADSVLWGGHKVFMVKPEEPFQPVKEATYL [Q234Y],0.0849,0.0653,0.108,0.113,0.079,0.0772,0.0582,0.0729,0.0602,0.0672,0.0598,0.0571,0.0599,,,0.0772,0.0505,,0.0783
MCESLFKGPRDYNPISSSICHLTNESDGHTTSLYGIGFGPFIITNKHLFRRNNGTLVVQSLHGVFKVKDTTTLQQHLVDGRDMIIIRMPKDFPPFPQKLKFREPQREERICLVTTNFQTKSMSSMVSDTSCTFPSGDGIFWKHWIQTKDGQCGSPLVSTRDGFIVGIHSASNFTNTNNYFTSVPKNFMELLTNQEAQQWVSGWRLNADSVLWGGHKVFMVKPEEPFQPVKEATQL [G2C],,,,0.111,,0.0854,,0.075,,,,,,,,,,,0.0479
MLESLFKGPRDYNPISSSICHLTNESDGHTTSLYGIGFGPFIITNKHLFRRNNGTLVVQSLHGVFKVKDTTTLQQHLVDGRDMIIIRMPKDFPPFPQKLKFREPQREERICLVTTNFQTKSMSSMVSDTSCTFPSGDGIFWKHWIQTKDGQCGSPLVSTRDGFIVGIHSASNFTNTNNYFTSVPKNFMELLTNQEAQQWVSGWRLNADSVLWGGHKVFMVKPEEPFQPVKEATQL [G2L],,,0.14,,,,,,,,0.0701,,0.0223,0.0543,0.157,,0.0621,,0.133
MGESWFKGPRDYNPISSSICHLTNESDGHTTSLYGIGFGPFIITNKHLFRRNNGTLVVQSLHGVFKVKDTTTLQQHLVDGRDMIIIRMPKDFPPFPQKLKFREPQREERICLVTTNFQTKSMSSMVSDTSCTFPSGDGIFWKHWIQTKDGQCGSPLVSTRDGFIVGIHSASNFTNTNNYFTSVPKNFMELLTNQEAQQWVSGWRLNADSVLWGGHKVFMVKPEEPFQPVKEATQL [L5W],,0.0647,,,0.0665,0.0806,,0.0746,,0.0473,0.0825,0.081,0.0755,0.0621,0.14,0.0844,,0.0802,0.0844
MGESLDKGPRDYNPISSSICHLTNESDGHTTSLYGIGFGPFIITNKHLFRRNNGTLVVQSLHGVFKVKDTTTLQQHLVDGRDMIIIRMPKDFPPFPQKLKFREPQREERICLVTTNFQTKSMSSMVSDTSCTFPSGDGIFWKHWIQTKDGQCGSPLVSTRDGFIVGIHSASNFTNTNNYFTSVPKNFMELLTNQEAQQWVSGWRLNADSVLWGGHKVFMVKPEEPFQPVKEATQL [F6D],,0.0912,0.0912,,0.0679,,,,0.0725,,0.0675,0.0584,0.0657,0.0615,,0.0805,0.0583,,0.072
MGESLSKGPRDYNPISSSICHLTNESDGHTTSLYGIGFGPFIITNKHLFRRNNGTLVVQSLHGVFKVKDTTTLQQHLVDGRDMIIIRMPKDFPPFPQKLKFREPQREERICLVTTNFQTKSMSSMVSDTSCTFPSGDGIFWKHWIQTKDGQCGSPLVSTRDGFIVGIHSASNFTNTNNYFTSVPKNFMELLTNQEAQQWVSGWRLNADSVLWGGHKVFMVKPEEPFQPVKEATQL [F6S],,0.0708,0.126,0.0882,,,0.072,,,0.0659,,0.0742,,0.0687,,0.0871,,,0.108
MGESLFGGPRDYNPISSSICHLTNESDGHTTSLYGIGFGPFIITNKHLFRRNNGTLVVQSLHGVFKVKDTTTLQQHLVDGRDMIIIRMPKDFPPFPQKLKFREPQREERICLVTTNFQTKSMSSMVSDTSCTFPSGDGIFWKHWIQTKDGQCGSPLVSTRDGFIVGIHSASNFTNTNNYFTSVPKNFMELLTNQEAQQWVSGWRLNADSVLWGGHKVFMVKPEEPFQPVKEATQL [K7G],,,,0.0937,,0.0752,0.0716,0.0466,0.0656,0.0592,0.0603,,0.0976,0.0651,,0.0919,0.0579,,0.0892
MGESLFKYPRDYNPISSSICHLTNESDGHTTSLYGIGFGPFIITNKHLFRRNNGTLVVQSLHGVFKVKDTTTLQQHLVDGRDMIIIRMPKDFPPFPQKLKFREPQREERICLVTTNFQTKSMSSMVSDTSCTFPSGDGIFWKHWIQTKDGQCGSPLVSTRDGFIVGIHSASNFTNTNNYFTSVPKNFMELLTNQEAQQWVSGWRLNADSVLWGGHKVFMVKPEEPFQPVKEATQL [G8Y],,,,,,,,,,,,,,,,,,,0.0767
